In publication PMC6212790 one finds binding signal data, which are given here for 109 sequences.

This is one part of the list. At the low end of the ranking the order means little.

The target of this test is T1, GST-Rok-C97-191 (UniProt O34857).
T1 sequence: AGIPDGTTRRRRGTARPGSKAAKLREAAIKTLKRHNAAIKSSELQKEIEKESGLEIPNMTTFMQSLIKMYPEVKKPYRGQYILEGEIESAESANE
Description: protein binding microarray.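 Also: rank score from −0.5 (least bound) to 0.5 (best bound).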 To be noted: Rok is a gene silencer of Bacillus subtilis; high values mean tight binding; most listed sequences are background and not binding sites; double strand, one strand shown.
Turning to ACCCAGAT, the binding signal is -0.0264 E-score.
AGTTGTAG yielded a binding signal of 0.248 E-score.
The figure for CCATCTCC is -0.25 E-score.
CAATTGAA: the binding signal was 0.0478 E-score.
AGGATATC returned a binding signal of 0.0896 E-score.
Then GCGCATAA, with 0.108 E-score; and AACACATT, with 0.127 E-score; and GCTGGCCA, with -0.144 E-score.
Then ATACAACA, with 0.27 E-score; and GAACACCA, with -0.149 E-score.
Then CGCCTCCA, with 0.0132 E-score; and AGAGGTAT, with 0.124 E-score.
Sequence ATGTAGAC displayed a binding signal of 0.142 E-score.
Then CAGGGCAG, with -0.359 E-score; and ACAGTGAA, with 0.0417 E-score; and AAACACAG, with -0.00421 E-score.
Then ATCGTGGG, with -0.0344 E-score; and GTCCGATA, with -0.0317 E-score.
The figure for GACATCTC is -0.142 E-score; for AAGGTACA it is 0.111 E-score.
For GTCCTACA, the binding signal is -0.0533 E-score.
Then CAGGTTAC, with -0.0355 E-score; and GCGCTAGA, with 0.136 E-score.
Then GAACCCGA, with -0.0854 E-score; and ATAGACAG, with -0.177 E-score; and CACGCTAA, with -0.0228 E-score.
Then ATTGCACA, with -0.0584 E-score; and ACCATCAA, with -0.143 E-score.
In turn, ATGGTATG had a binding signal of 0.126 E-score.
The figure for CGGGGGCA is -0.295 E-score; for CTTCCACA it is -0.0282 E-score.
Then GTCCCCTA, with -0.296 E-score; and AGGACGTG, with 0.0647 E-score; and CGGCTCGA, with -0.118 E-score.
The figure for ATAGACTG is -0.0112 E-score; for GACCTCGA it is 0.000845 E-score.
As for ATACTGGC, the binding signal is 0.0263 E-score.
As to ATGGAGCA, the binding signal is -0.171 E-score.
The figure for AACTAAAT is 0.379 E-score; for AGACGCTC it is 0.00269 E-score.
Consider AAGCGCTA, for which the binding signal was 0.204 E-score.
For CACCTAGA, the binding signal is 0.0776 E-score.
Then ACGATTCC, with 0.099 E-score; and CCTCAGTC, with -0.363 E-score; and CCGAATAA, with 0.0699 E-score.
Then AAATAACA, with 0.224 E-score.
The figure for ATGGCAAC is -0.109 E-score; for CTTTAGGA it is -0.068 E-score.
The sequence CCCGAGTA displayed a binding signal of -0.0564 E-score.
The figure for AAACGGCA is 0.0136 E-score.
Then CGTGTTGC, with -0.0178 E-score; and GGCCTTAC, with -0.232 E-score; and GAGGTCCC, with -0.241 E-score.
The figure for CCTCAGCG is 0.0698 E-score.
The sequence GCGCCACA returned a binding signal of -0.193 E-score.
Then ACCGCGTC, with 0.00219 E-score; and AATCGGGA, with -0.199 E-score; and GTTTACAA, with 0.144 E-score.
For the sequence GGCCCCCC, the binding signal is -0.388 E-score.
Then ACTTCGAA, with 0.0207 E-score; and CATAGATG, with 0.207 E-score; and ACACGACT, with 0.0378 E-score.
Then ACCTGTAT, with 0.0303 E-score.
Then AGTAGTGG, with 0.253 E-score; and AATACCGC, with 0.251 E-score; and AGTAGCGA, with 0.255 E-score.
Consider CTGCTGAC, for which the binding signal was -0.164 E-score.
In the case of CTGATGTC, the binding signal was -0.0573 E-score.
In the case of CACGACAC, the binding signal was -0.123 E-score.
In turn, AAAGTTGG had a binding signal of 0.0929 E-score.
The figure for ATATTAGA is 0.243 E-score.
The sequence CGTCAAAA registered a binding signal of -0.0887 E-score.
Then CTGCCGTC, with -0.219 E-score; and GAAATCGC, with 0.0982 E-score.
Then CTTGAAGA, with -0.0244 E-score; and CGCCGTGA, with 0.0507 E-score; and GAGCATAC, with -0.198 E-score.
The figure for AGAAGCGG is -0.262 E-score.
For GGAGATCC, the binding signal was -0.135 E-score.
The figure for TCTACGCA is -0.13 E-score; for CTAATAAA it is 0.255 E-score.
The figure for AAAGGAAT is 0.0105 E-score; for AACGCTAC it is 0.0526 E-score.
Sequence AATATGAG registered a binding signal of -0.0124 E-score.
Then AGATACTG, with 0.148 E-score; and AGGTAGCC, with -0.193 E-score.
The figure for GCCTACAC is -0.183 E-score; for CAGACGCA it is -0.191 E-score; for GGGTAAAA it is 0.206 E-score.
The figure for CTGTGGAC is -0.169 E-score.
With GAGTCAGC, the binding signal was -0.0411 E-score.
Then ACCACGGT, with 0.0791 E-score; and CCCTGGAG, with -0.0929 E-score; and CCGAACAG, with -0.107 E-score.
CGCCGCAC yielded a binding signal of -0.237 E-score.
The figure for ATGGTCTC is -0.0143 E-score; for GTCGGTAA it is 0.209 E-score; for CCTTGTCG it is -0.0704 E-score.
The sequence AATCAAGC came in with a binding signal of -0.123 E-score.
The figure for AAGGCCAG is -0.277 E-score; for TGTTGGAA it is -0.217 E-score.
CCGCTTTA registered a binding signal of -0.0374 E-score.
Then TCATACGA, with 0.00225 E-score; and ACGTAGCA, with 0.06 E-score.
The figure for ACTGCTGC is -0.0528 E-score; for CATGGTTA it is 0.0882 E-score.
Then TTGCGCAA, with -0.00128 E-score.
Consider AGTAAGAC, for which the binding signal is -0.118 E-score.
Then ACTTATCC, with 0.111 E-score.
